Reference: publication PMC4705382
Results are given in words; binding and its absence hold for the method and conditions named. In cells and extracts the contact can be indirect. Some binding calls cover weakened binding; strength is not graded here. For some assays here: Tags and fused reporters may be left off the sequences shown.

By UniProt entry, the sequences of proteins in these tests, tags left out.
UniProt Q8IXI2: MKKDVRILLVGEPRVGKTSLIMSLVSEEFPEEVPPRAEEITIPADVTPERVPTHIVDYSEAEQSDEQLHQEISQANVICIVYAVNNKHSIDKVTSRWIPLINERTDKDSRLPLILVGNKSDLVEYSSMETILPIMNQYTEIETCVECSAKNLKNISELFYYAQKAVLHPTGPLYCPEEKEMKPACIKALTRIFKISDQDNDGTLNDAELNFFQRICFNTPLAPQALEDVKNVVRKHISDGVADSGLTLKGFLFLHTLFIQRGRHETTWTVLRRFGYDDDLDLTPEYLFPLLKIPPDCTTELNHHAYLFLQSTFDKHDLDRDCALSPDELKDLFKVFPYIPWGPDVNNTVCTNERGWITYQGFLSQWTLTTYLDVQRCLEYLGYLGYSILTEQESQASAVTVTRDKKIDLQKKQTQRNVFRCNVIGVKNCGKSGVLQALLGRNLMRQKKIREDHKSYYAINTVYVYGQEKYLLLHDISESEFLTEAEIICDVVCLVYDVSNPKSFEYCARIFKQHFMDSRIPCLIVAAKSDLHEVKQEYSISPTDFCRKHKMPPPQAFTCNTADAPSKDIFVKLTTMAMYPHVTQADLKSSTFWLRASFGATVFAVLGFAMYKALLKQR

T1: ^GFPTRAK2 (mouse) (UniProt Q6P9N8)
T1 sequence: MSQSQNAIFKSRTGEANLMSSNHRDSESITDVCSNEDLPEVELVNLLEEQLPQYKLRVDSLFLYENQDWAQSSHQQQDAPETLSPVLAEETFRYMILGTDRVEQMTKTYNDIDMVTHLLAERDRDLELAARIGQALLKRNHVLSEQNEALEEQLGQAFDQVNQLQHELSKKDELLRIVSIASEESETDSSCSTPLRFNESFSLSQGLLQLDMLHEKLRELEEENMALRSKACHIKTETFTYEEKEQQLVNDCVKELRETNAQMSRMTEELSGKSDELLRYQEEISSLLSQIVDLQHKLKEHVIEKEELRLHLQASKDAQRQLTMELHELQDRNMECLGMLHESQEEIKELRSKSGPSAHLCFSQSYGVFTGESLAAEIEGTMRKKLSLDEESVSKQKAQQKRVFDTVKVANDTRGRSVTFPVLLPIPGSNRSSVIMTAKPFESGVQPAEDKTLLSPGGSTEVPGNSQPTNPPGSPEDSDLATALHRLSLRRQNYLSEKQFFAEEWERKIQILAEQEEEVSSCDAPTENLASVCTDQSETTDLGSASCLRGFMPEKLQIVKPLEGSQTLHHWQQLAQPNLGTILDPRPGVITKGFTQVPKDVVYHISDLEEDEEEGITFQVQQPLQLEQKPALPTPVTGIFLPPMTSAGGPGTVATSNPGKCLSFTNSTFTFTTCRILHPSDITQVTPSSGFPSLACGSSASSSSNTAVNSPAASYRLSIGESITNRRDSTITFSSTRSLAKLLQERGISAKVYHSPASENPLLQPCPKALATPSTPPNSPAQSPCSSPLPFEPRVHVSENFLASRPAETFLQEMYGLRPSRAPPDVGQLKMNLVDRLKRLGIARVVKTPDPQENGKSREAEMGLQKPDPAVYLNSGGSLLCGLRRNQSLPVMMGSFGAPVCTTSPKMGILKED

T2: Untagged human DISC1 (human) (UniProt Q9NRI5)
T2 sequence: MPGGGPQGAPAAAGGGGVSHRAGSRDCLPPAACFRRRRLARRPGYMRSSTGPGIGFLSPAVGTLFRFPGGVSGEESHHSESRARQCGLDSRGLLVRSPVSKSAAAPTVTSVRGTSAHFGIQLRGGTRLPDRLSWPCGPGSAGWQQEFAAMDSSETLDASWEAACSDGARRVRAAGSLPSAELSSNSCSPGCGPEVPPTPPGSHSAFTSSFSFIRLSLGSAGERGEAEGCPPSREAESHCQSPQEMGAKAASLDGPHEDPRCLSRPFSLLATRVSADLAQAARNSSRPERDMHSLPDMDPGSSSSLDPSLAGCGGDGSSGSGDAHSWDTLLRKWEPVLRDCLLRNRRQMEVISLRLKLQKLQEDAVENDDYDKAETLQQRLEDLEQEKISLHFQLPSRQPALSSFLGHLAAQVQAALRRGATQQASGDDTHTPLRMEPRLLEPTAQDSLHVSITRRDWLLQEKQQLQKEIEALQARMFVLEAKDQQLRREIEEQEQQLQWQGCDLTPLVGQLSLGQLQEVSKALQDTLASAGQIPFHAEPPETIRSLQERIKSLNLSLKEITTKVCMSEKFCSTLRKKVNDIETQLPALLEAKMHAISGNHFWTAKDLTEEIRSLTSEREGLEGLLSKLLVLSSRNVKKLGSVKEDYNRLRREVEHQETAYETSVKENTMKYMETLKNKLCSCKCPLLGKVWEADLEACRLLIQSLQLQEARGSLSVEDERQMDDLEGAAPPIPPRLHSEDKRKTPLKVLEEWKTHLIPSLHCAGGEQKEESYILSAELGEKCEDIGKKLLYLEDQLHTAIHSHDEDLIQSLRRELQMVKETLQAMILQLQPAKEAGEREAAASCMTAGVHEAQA


Tests used:
^GFPTRAK2 (mouse) = target: T1, ^GFPTRAK2 (mouse); assay: co-IP; GFP trap beads (Chromotek) on lysates of co-transfected COS7 cells; lysis buffer 50 mM HEPES pH 7.5, 0.5% Triton X-100, 150 mM NaCl, 1 mM EDTA; Western blot
^mycMiro1 = ^mycMiro1 (UniProt Q8IXI2); assay: co-IP; rabbit anti-Myc beads (Sigma) on lysates of co-transfected COS7 cells; lysis buffer 50 mM HEPES pH 7.5, 0.5% Triton X-100, 150 mM NaCl, 1 mM EDTA; Western blot
[1] = target: T2, Untagged human DISC1 (human); assay: co-IP; DISC1 immunoprecipitated, TRAK2 detected; data not shown
[2] = target: endogenous Miro1 (SH-SY5Y cells) (human (endogenous in SH-SY5Y)) (UniProt Q8IXI2); assay: proximity ligation; Duolink on fixed SH-SY5Y cells; anti-Rhot1 (HPA010687) and anti-DISC1 (14F2), both 1:200; anti-DISC1 alone as control

Row | Binder | binding (^GFPTRAK2 (mouse)) | binding (^mycMiro1) | binding [1] | binding [2]
1 | ^HADISC1-(1–301) (domain or fragment, UniProt Q9NRI5 1-301) MPGGGPQGAPAAAGGGGVSHRAGSRDCLPPAACFRRRRLARRPGYMRSSTGPGIGFLSPAVGTLFRFPGGVSGEESHHSESRARQCGLDSRGLLVRSPVSKSAAAPTVTSVRGTSAHFGIQLRGGTRLPDRLSWPCGPGSAGWQQEFAAMDSSETLDASWEAACSDGARRVRAAGSLPSAELSSNSCSPGCGPEVPPTPPGSHSAFTSSFSFIRLSLGSAGERGEAEGCPPSREAESHCQSPQEMGAKAASLDGPHEDPRCLSRPFSLLATRVSADLAQAARNSSRPERDMHSLPDMDPGS | binds | binds |  | 
2 | ^HADISC1 150–854 (domain or fragment, UniProt Q9NRI5 150-854) MDSSETLDASWEAACSDGARRVRAAGSLPSAELSSNSCSPGCGPEVPPTPPGSHSAFTSSFSFIRLSLGSAGERGEAEGCPPSREAESHCQSPQEMGAKAASLDGPHEDPRCLSRPFSLLATRVSADLAQAARNSSRPERDMHSLPDMDPGSSSSLDPSLAGCGGDGSSGSGDAHSWDTLLRKWEPVLRDCLLRNRRQMEVISLRLKLQKLQEDAVENDDYDKAETLQQRLEDLEQEKISLHFQLPSRQPALSSFLGHLAAQVQAALRRGATQQASGDDTHTPLRMEPRLLEPTAQDSLHVSITRRDWLLQEKQQLQKEIEALQARMFVLEAKDQQLRREIEEQEQQLQWQGCDLTPLVGQLSLGQLQEVSKALQDTLASAGQIPFHAEPPETIRSLQERIKSLNLSLKEITTKVCMSEKFCSTLRKKVNDIETQLPALLEAKMHAISGNHFWTAKDLTEEIRSLTSEREGLEGLLSKLLVLSSRNVKKLGSVKEDYNRLRREVEHQETAYETSVKENTMKYMETLKNKLCSCKCPLLGKVWEADLEACRLLIQSLQLQEARGSLSVEDERQMDDLEGAAPPIPPRLHSEDKRKTPLKVLEEWKTHLIPSLHCAGGEQKEESYILSAELGEKCEDIGKKLLYLEDQLHTAIHSHDEDLIQSLRRELQMVKETLQAMILQLQPAKEAGEREAAASCMTAGVHEAQA | binds | binds |  | 
3 | ^GFPTRAK2 (protein, UniProt Q6P9N8 1-913) MSQSQNAIFKSRTGEANLMSSNHRDSESITDVCSNEDLPEVELVNLLEEQLPQYKLRVDSLFLYENQDWAQSSHQQQDAPETLSPVLAEETFRYMILGTDRVEQMTKTYNDIDMVTHLLAERDRDLELAARIGQALLKRNHVLSEQNEALEEQLGQAFDQVNQLQHELSKKDELLRIVSIASEESETDSSCSTPLRFNESFSLSQGLLQLDMLHEKLRELEEENMALRSKACHIKTETFTYEEKEQQLVNDCVKELRETNAQMSRMTEELSGKSDELLRYQEEISSLLSQIVDLQHKLKEHVIEKEELRLHLQASKDAQRQLTMELHELQDRNMECLGMLHESQEEIKELRSKSGPSAHLCFSQSYGVFTGESLAAEIEGTMRKKLSLDEESVSKQKAQQKRVFDTVKVANDTRGRSVTFPVLLPIPGSNRSSVIMTAKPFESGVQPAEDKTLLSPGGSTEVPGNSQPTNPPGSPEDSDLATALHRLSLRRQNYLSEKQFFAEEWERKIQILAEQEEEVSSCDAPTENLASVCTDQSETTDLGSASCLRGFMPEKLQIVKPLEGSQTLHHWQQLAQPNLGTILDPRPGVITKGFTQVPKDVVYHISDLEEDEEEGITFQVQQPLQLEQKPALPTPVTGIFLPPMTSAGGPGTVATSNPGKCLSFTNSTFTFTTCRILHPSDITQVTPSSGFPSLACGSSASSSSNTAVNSPAASYRLSIGESITNRRDSTITFSSTRSLAKLLQERGISAKVYHSPASENPLLQPCPKALATPSTPPNSPAQSPCSSPLPFEPRVHVSENFLASRPAETFLQEMYGLRPSRAPPDVGQLKMNLVDRLKRLGIARVVKTPDPQENGKSREAEMGLQKPDPAVYLNSGGSLLCGLRRNQSLPVMMGSFGAPVCTTSPKMGILKED |  |  | binds | 
4 | endogenous DISC1 (SH-SY5Y cells) (protein, UniProt Q9NRI5 1-854) MPGGGPQGAPAAAGGGGVSHRAGSRDCLPPAACFRRRRLARRPGYMRSSTGPGIGFLSPAVGTLFRFPGGVSGEESHHSESRARQCGLDSRGLLVRSPVSKSAAAPTVTSVRGTSAHFGIQLRGGTRLPDRLSWPCGPGSAGWQQEFAAMDSSETLDASWEAACSDGARRVRAAGSLPSAELSSNSCSPGCGPEVPPTPPGSHSAFTSSFSFIRLSLGSAGERGEAEGCPPSREAESHCQSPQEMGAKAASLDGPHEDPRCLSRPFSLLATRVSADLAQAARNSSRPERDMHSLPDMDPGSSSSLDPSLAGCGGDGSSGSGDAHSWDTLLRKWEPVLRDCLLRNRRQMEVISLRLKLQKLQEDAVENDDYDKAETLQQRLEDLEQEKISLHFQLPSRQPALSSFLGHLAAQVQAALRRGATQQASGDDTHTPLRMEPRLLEPTAQDSLHVSITRRDWLLQEKQQLQKEIEALQARMFVLEAKDQQLRREIEEQEQQLQWQGCDLTPLVGQLSLGQLQEVSKALQDTLASAGQIPFHAEPPETIRSLQERIKSLNLSLKEITTKVCMSEKFCSTLRKKVNDIETQLPALLEAKMHAISGNHFWTAKDLTEEIRSLTSEREGLEGLLSKLLVLSSRNVKKLGSVKEDYNRLRREVEHQETAYETSVKENTMKYMETLKNKLCSCKCPLLGKVWEADLEACRLLIQSLQLQEARGSLSVEDERQMDDLEGAAPPIPPRLHSEDKRKTPLKVLEEWKTHLIPSLHCAGGEQKEESYILSAELGEKCEDIGKKLLYLEDQLHTAIHSHDEDLIQSLRRELQMVKETLQAMILQLQPAKEAGEREAAASCMTAGVHEAQA |  |  |  | binds
5 | ^HADISC1-(313–854) (domain or fragment, UniProt Q9NRI5 313-854) GGDGSSGSGDAHSWDTLLRKWEPVLRDCLLRNRRQMEVISLRLKLQKLQEDAVENDDYDKAETLQQRLEDLEQEKISLHFQLPSRQPALSSFLGHLAAQVQAALRRGATQQASGDDTHTPLRMEPRLLEPTAQDSLHVSITRRDWLLQEKQQLQKEIEALQARMFVLEAKDQQLRREIEEQEQQLQWQGCDLTPLVGQLSLGQLQEVSKALQDTLASAGQIPFHAEPPETIRSLQERIKSLNLSLKEITTKVCMSEKFCSTLRKKVNDIETQLPALLEAKMHAISGNHFWTAKDLTEEIRSLTSEREGLEGLLSKLLVLSSRNVKKLGSVKEDYNRLRREVEHQETAYETSVKENTMKYMETLKNKLCSCKCPLLGKVWEADLEACRLLIQSLQLQEARGSLSVEDERQMDDLEGAAPPIPPRLHSEDKRKTPLKVLEEWKTHLIPSLHCAGGEQKEESYILSAELGEKCEDIGKKLLYLEDQLHTAIHSHDEDLIQSLRRELQMVKETLQAMILQLQPAKEAGEREAAASCMTAGVHEAQA | no binding | no binding |  | 
